Experimental data published in PubChem BioAssay AID493208 (National Center for Advancing Translational Sciences (NCATS), 2011).
Screen size: about 44,000 compounds; about 340 (0.77%) were called active. About 5% were inconclusive and are not listed. Calls come from the whole dose curve; as a rule, active = well fitted inhibition curve with a large enough effect; inconclusive = small, poorly fitted or top-dose-only effect; inactive = flat fitted curve, though single readings scatter. The list shows a part of the results.

Assay: Acumen qHTS Assay for Inhibitors of the mTORC1 Signaling Pathway in MEF (Tsc2-/-, p53-/-) Cells: Sytravon;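 note: plate controls were DMSO for no effect and rapamycin for full effect; nearly all actives have a fitted effect of over 50% in size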
Conditions: phospho-rpS6 immunofluorescence/PI, 24 h; series mostly up to 38.3 µM; activity change, negative = inhibition: at the top concentration
In short: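 Cell-based qHTS: Tsc2-/- p53-/- MEF, 24 h cpd, 37 °C; fix/perm, anti-phospho-S6 Alexa-488 + PI; Acumen 488 nm scan; pS6/PI ratio, % positive cells; rapamycin 7.5 nM = inhibition ref; PI count = viability.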

Activity change, negative = inhibition, inactive:
COC(=O)c1ccc(NC(=O)CN(CCc2ccccc2)S(=O)(=O)c2ccc(OC)cc2)cc1 2.22%, Cc1cccc(Cn2nc(C)n3c(cc4cc(C)ccc43)c2=O)c1 -6.44%, Cc1ccc(C)c(N2CCN(c3ccc4cc(S(=O)(=O)N5CCC(C)CC5)ccc4n3)CC2)c1 -3.63%, Cc1ccc(C)c(N2CCN(C(=O)c3cc(C)nc4c3c(C)nn4-c3cccc(F)c3)CC2)c1 -0.658%, Cc1ccccc1OCC(=O)Nc1sc2c(c1C(=O)OC(C)C)CCCC2 8.49%, CCOc1ccc(C(=O)NCCc2sc(-c3ccc(OC)c(OC)c3)nc2C)cc1 -8.61%, CCn1c(C(=O)NCc2ccc(OC(C)C)cc2)cc2oc3ccccc3c21 3.84%, CCOc1ccc(-n2c(SCC(=O)N3CCC(C)CC3)nc3c([nH]c4ccccc43)c2=O)cc1 1.79%, Cc1oc(-c2cccc(Cl)c2)nc1CS(=O)(=O)CC(=O)NCc1ccccc1Cl -0.164%, Cc1cccc(N2C(=O)C(CC(=O)Nc3ccc(Cl)cc3)N(Cc3ccco3)C2=O)c1 (centres undefined) 0%, CCCOc1ccc(C(=O)Nc2cc3c(cc2N2CCOCC2)n(C)c(=O)n3C)cc1 1.61%, Cc1cccc(-n2c(=O)c3c(c4cc(C)ccc4n3C)n(CC(=O)NCC3CCCO3)c2=O)c1 (centres undefined) -0.143%, Cc1oc2ccc(O)c(CN3CCN(C)CC3)c2c1C(=O)Nc1cccc(Cl)c1C -3.25%, Cc1ccc2c(c1)c(=O)c1ccccc1n2CCCC(=O)Nc1cc(Cl)ccc1C -12.4%, COc1ccc2c(CNCc3cccs3)c(C(=O)O)n(Cc3ccc(C)cc3)c2c1 3.95%, Cc1nn(CC(=O)O)c(=O)c2cc3cc(F)ccc3n12 -18.5%, COC(=O)c1ccc(C2c3c(oc4ccccc4c3=O)C(=O)N2c2nc(C)c(C(=O)OC)s2)cc1 (centres undefined) -9.15%, O=C(Nc1cc(Cl)cc(Cl)c1)c1ccc2c(c1)N(Cc1cccc(Cl)c1)C(=O)c1ccccc1S2=O (centres undefined) 3.62%, COc1ccccc1NC(=O)c1cc(S(=O)(=O)N2CCN(c3ccccc3Cl)CC2)ccc1F 11.8%, COc1ccc(NC(=O)Cn2c(=O)n(Cc3nc(-c4ccccc4)no3)c(=O)c3cc4c(cc32)OCO4)c(OC)c1 -1.06%, Cc1nn(CC(=O)NCc2ccc(Cl)cc2)c(=O)c2cc3sccc3n12 -7.06%, O=C(Nc1ccc2oc(-c3cccnc3)nc2c1)c1ccc(Br)cc1 6.12%, CC(=O)c1ccc(NC(=O)C2Cc3ccccc3N2C(=O)c2ccccc2)cc1 (centres undefined) -16.3%, Cc1ccc(N2CCN(S(=O)(=O)c3cc(C(=O)Nc4cc(Cl)cc(Cl)c4)ccc3F)CC2C)cc1 (centres undefined) 5.31%, CC(=O)Nc1nonc1-c1nnc(SCC(=O)Nc2cccc(F)c2)n1-c1ccccc1 -0.602%, COC(=O)c1scc(-c2ccc(C)cc2)c1S(=O)(=O)Nc1ccc(F)cc1F 8.97%, CN(C)S(=O)(=O)c1ccc2c(c1)N(CC(=O)NCc1ccc(F)cc1)C(=O)CS2 -4.9%, COc1ccc(C)cc1NC(=O)Cn1c(=O)c(C(F)(F)F)nc2ccccc21 -6.11%, COc1ccc(Oc2c(C(F)(F)F)oc3c(CN4CCCC(C)C4)c(O)ccc3c2=O)cc1 (centres undefined) 1.62%, Cc1ccc(NC(=O)Cn2cc3c(n2)CCCC3)c(Cl)c1 2.73%, COc1ccccc1N1CCN(c2ccc(=O)n(CC(=O)NCc3ccc(OC(C)C)cc3)n2)CC1 0.226%, Cc1cccc(-c2nc3scc(CCNS(=O)(=O)c4ccc(Oc5ccccc5)cc4)n3n2)c1 -12.6%, Cc1nn(C)c2c1c(C(F)(F)F)cc(=O)n2CC(=O)NCCC(C)C -7.84%, O=C(Nc1ccc2oc(-c3cccnc3)nc2c1)c1ccc(-c2ccccc2OC(F)(F)F)o1 -2.93%, COc1ccc(-n2nc(C(=O)Nc3cc(OC)c(OC)c(OC)c3)c(=O)n(C)c2=O)cc1 -8.09%, COc1ccc(-c2cc3ccc(O)c(CN4CCC(C)CC4)c3oc2=O)cc1 -12%, CC1=C(c2ccc(C)cc2)S(=O)(=O)NC1=NCCCN1CCN(c2ccccc2F)CC1 0.712%, COc1ccc(-n2nc(C(=O)N3CCN(c4ccc(F)cc4)CC3)c3c4ccccc4n(C)c3c2=O)cc1 1.8%, O=C(O)c1ccc(Nc2nc3ccccc3n3cnnc23)cc1 4.38%, COc1ccc(C2CC(=O)N(Cc3ccc(F)cc3)c3ccccc3S2)cc1OC (centres undefined) -10.6%, CCCCCn1c(=O)[nH]c2cc(C(=O)NCc3ccc(Cl)cc3)ccc2c1=O 4.67%, COc1ccccc1C(=O)NCCn1cc(SCc2ccc(C)cc2)c2ccccc21 -22.5%, COc1ccc(OC)c2sc(N3CCN(C(=O)c4ccc5c(c4)CCCC5)CC3)nc12 0.324%, CCc1ccccc1NS(=O)(=O)c1ccc2c(c1)CCN2C(=O)C1CC1 2.74%, CCc1ccc(-c2nn(CC(=O)NC3CCCCC3)c3c2cnc2ccc(C)cc23)cc1 4.13%, c1ccc(N2CCN(Cc3cccn3-c3nnc(N4CCN(C5CCCCC5)CC4)s3)CC2)cc1 2.24%, O=C(CN1CCN(Cc2cccc(Cl)c2)C1=O)NCc1ccc(F)cc1 -1.34%, CCN(c1ccccc1C)S(=O)(=O)c1ccc(N2CCCCS2(=O)=O)cc1 11.5%, CCOc1ccc(CCNC(=O)c2nn(-c3ccc(OC)c(Cl)c3)c(=O)c3c2c2ccccc2n3C)cc1OCC -7.84%, Cn1c(=O)c2cc(C(=O)NCCCN3CCN(c4cccc(Cl)c4)CC3)sc2c2ccccc21 -0.903%, Cc1nn(-c2ccccc2)c(-n2cccc2)c1C(=O)NCCc1ccc(Cl)cc1 -2.58%, CC(C)Cn1c(=O)c2sccc2n2c(CCCC(=O)NCCc3ccc(Cl)cc3)nnc12 -2.2%, O=C(Nc1ccc(Br)cc1)c1ccc(F)c(S(=O)(=O)N2CCCc3ccccc32)c1 -11.7%, O=C(COc1ccc(Br)cc1Cl)Nc1ncn[nH]1 -3.64%, COc1ccc(OCC(=O)Nc2ccc3c(c2)nc(CCNC(=O)c2ccco2)n3C)cc1 1.52%, CCc1ccc(NC(=O)CSc2nc(-c3ccccc3Cl)nc3c2Cc2c(CO)cnc(C)c2O3)cc1 0.203%, CCc1ccc2nc(N(Cc3cccnc3)C(C)=O)sc2c1 2.25%, CCOc1ccccc1CNC(=O)c1cn(-c2ccc(OC)cc2)c(=O)c2ccccc12 6.81%, COc1cccc(CNC(=O)CSc2n[nH]c(-c3ccccc3Cl)n2)c1OC -7.91%, COc1cccc(C2=C(C(C)=O)Sc3nnc(C4CCCCC4)n3N2C(C)=O)c1 -6.94%, CCOc1ccc(NC(=O)[C@H]2O[C@@H]3OC(C)(C)O[C@@H]3[C@H]3OC(C)(C)O[C@H]32)cc1 -5.9%, Cc1cccc(NC(=O)CSc2nc(=O)n(Cc3ccco3)c3c2CCC3)c1C -2.6%, Cc1cc(C)cc(NC(=O)C(=O)NCCCN2CCOCC2)c1 -10.5%, Cc1ccc2cc3cc(C(=O)N4CCN(c5ccccc5)CC4)oc3nc2c1 -11.5%, O=c1c(N2CCN(c3cccc(Cl)c3)CC2)csc2ccccc12 -10.9%, CCc1nn(CC(=O)NCc2ccccc2Cl)c(=O)c2cc3ccccc3n12 -13.3%, CCOc1ccc(CN(C(=O)c2nc(SC)ncc2Cl)C2CCS(=O)(=O)C2)cc1 (centres undefined) 1.18%, O=C(Nc1nc2ccc(S(=O)(=O)N3CCCC3)cc2s1)c1ccc(F)cc1 3.13%, CC1CCCCN1CCCNC(=O)c1ccc2c(c1)sc1nc(-c3ccc(F)cc3)cn12 (centres undefined) -1.31%, CCc1ccc(Oc2c(C(F)(F)F)oc3c(CN4CCN(CC)CC4)c(O)ccc3c2=O)cc1 -1%, CCOC(=O)c1noc2ncnc(N3CCN(c4cccc(Cl)c4)CC3)c12 1.4%, CCOC(=O)N1CCc2c(sc3c2c(=O)n(-c2ccc(Cl)cc2)c(=O)n3Cc2cccc(OC)c2)C1 -7.97%, COc1ccc(-c2nc3nc(C)cc(N4CCN(c5cccc(C(F)(F)F)c5)CC4)n3n2)cc1 3.34%, COCCCNC(=O)c1ccc(Cn2c(=O)c3ccccc3n(CC(=O)Nc3ccc(C)cc3C)c2=O)cc1 4.09%, CC(C)c1cc(C(=O)NC(C)c2ccccc2)no1 (centres undefined) -5.99%, Cc1cc(C)cc(NC(=O)Cn2nnc(C(=O)NCc3ccccc3Cl)c2N)c1 -9.01%, COc1ccc(CCNC(=O)c2cc3c(s2)-c2c(C)cccc2OC3)c(OC)c1 -5.7%, CCOc1ccc(C(=O)Nc2ccccc2C(=O)OCc2cc(=O)n3nc(C4CC4)sc3n2)cc1 1.04%, Cc1cccc2c1-c1sc(C(=O)NCc3ccc(Cl)cc3)cc1CO2 -3.29%, Cc1cccc(N2CC(c3nc4ccccc4n3CCC3CCCCC3)CC2=O)c1 (centres undefined) 1.28%, CCc1ccc(S(=O)(=O)c2nnn3c2nc(Nc2cc(OC)cc(OC)c2)c2cc(Cl)ccc23)cc1 -2.94%, CCN(Cc1ccccc1)C(=O)c1cc2c(=O)oc3ccc(C)cc3c2s1 -4.29%, CN1C(C(=O)c2ccccc2)=C(NC(=O)c2ccccc2Br)c2ccccc2S1(=O)=O -1.1%, COc1ccc(NC(=O)Nc2cccc(OCc3cc(=O)n4cccc(C)c4n3)c2)c(OC)c1 -0.752%, COCCn1c(C)cc(O)c(C(c2ccc(Cl)cc2)N2CCN(c3ccccc3)CC2)c1=O (centres undefined) 5.25%, Cc1nc2ccc(S(=O)(=O)NC(C(=O)N3CCN(c4ccc(Cl)cc4)CC3)C(C)C)cc2s1 (centres undefined) -6.71%, CCc1ccc(NC(=O)Cc2csc(COc3cccc(C)c3)n2)cc1 -4.83%, O=c1n(Cc2ccc(Cl)cc2)c2ccccc2c2nc(-c3ccccc3)nn12 -10.9%, CCn1c(=O)cc(SCC(=O)NCCc2cccc(C)c2)c2ccccc21 0.555%, O=S(=O)(c1ccc2[nH]c3c(c2c1)CCCC3)N1CCN(c2cccc(C(F)(F)F)c2)CC1 -17.9%, COc1cc(C2N=C(N)Nc3nc4ccccc4n32)ccc1OCC(=O)O (centres undefined) -13.9%, COc1ccc(-c2cc(C(C)=O)c(C)n2CCC(=O)Nc2ccc(C)cc2Cl)cc1 -9.17%, COc1ccc(-c2cc(C(=O)NCc3ccc(F)cc3)no2)cc1 -6.78%, COc1ccc(C(=O)NCC(c2ccc(N(C)C)cc2)N2CCCC2)cc1 (centres undefined) -4.66%
